{"source": "PubChem BioAssay AID1745845", "about": "(National Center for Advancing Translational Sciences (NCATS), 2022)", "note": "In all, about 360,000 compounds went through this assay and about 2,600 (0.72%) were called active. This list was built around the results that the source calls inconclusive (neither active nor inactive); the mix of calls is not that of the screen. Calls follow the shape of the dose curve; as a rule, active = well fitted inhibition curve with a large enough effect; inconclusive = small, poorly fitted or top-dose-only effect; inactive = no such curve, though single readings can be large or run the other way. Potencies beside an inconclusive call are fits to weak or partial responses and may not hold up. % is scaled to controls: 0 for no effect and ±100 for the full control effect; potency is read from the fitted curve at half-maximal effect; tags tell the direction and shape of the fitted curve.", "data": [{"assay": "Primary qHTS for Inhibitors of ATXN expression; also: nearly all actives have a fitted effect of over 55% in size", "conditions": "HEK-293 ATXN2-luciferase reporter, luminescence, 24 h; activity change, negative = inhibition: at 57 µM (top of the series)", "summary_of_the_method": "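qHTS (up to 57 uM final) was run with 24 h compound exposure of reporter cells at 37 °C. Each well was multiplexed: SteadyGlo luminescence measured ATXN2-luciferase expression after a fluorogenic Gly-Phe-AFC viability readout (25 uM final).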", "values": [{"smiles": "CN1[C@@H]2CCC[C@H]1CC(=O)C2", "Potency": "inactive"}, {"smiles": "O=C1NC2C(=CC(O)C(O)C2O)c2cc3c(cc21)OCO3", "note": "(configuration not stated)", "Potency": "active: 0.947 µM"}, {"smiles": "COC1C(O)C(C)OC(OC2CCC3(C)C(CCC4C3C(O)CC3(C)C(C5=CC(=O)OC5)CCC43O)C2)C1O", "note": "(configuration not stated)", "Potency": "active: 0.398 µM"}, {"smiles": "O=[N+]([O-])c1oc2ccc3ccccc3c2c1CCO", "Potency": "inconclusive: 16.8 µM [inhibitor, partial curve, poor fit]"}, {"smiles": "CCOC(=O)c1c(N)n(CCCOC(=O)c2ccco2)c2nc3ccccc3nc12", "Potency": "inconclusive: 39.8 µM [inhibitor, single point]"}, {"smiles": "CC1=CC(=C2C(=O)NC(=O)NC2=O)C=C(C(F)(F)F)N1C(C)C", "Potency": "inactive"}, {"smiles": "Cc1nc2cc(-c3ccc(Cl)cc3)nn2c(C)c1CCC(=O)N1CCC2(CC1)OCCO2", "Potency": "inconclusive: 1.26 µM [inhibitor, full curve]"}, {"smiles": "COCCNC(=O)N1[C@H]2CC[C@@H]1C(C(=O)OC)=C(c1ccc(-c3ccccc3)c(F)c1)C2", "Potency": "inconclusive: 17.8 µM [inhibitor, partial curve]"}, {"smiles": "COC(=O)C1=C(c2ccc(-c3ccccc3)c(F)c2)C[C@@H]2CC[C@H]1N2C(=O)NCc1cc(C)oc1C(F)(F)F", "Potency": "inconclusive: 14.1 µM [inhibitor, partial curve, poor fit]"}, {"smiles": "C[C@]12CC[C@H]3[C@@H](CC[C@]4(O)C[C@@H](O)CC[C@]34C=O)[C@@]1(O)CC[C@@H]2C1=CC(=O)OC1", "Potency": "active: 0.316 µM"}, {"smiles": "Nc1c(C(=O)NCc2ccco2)c2nc3ccccc3nc2n1CCN1CCOCC1", "Potency": "inconclusive: 14.1 µM [inhibitor, partial curve, poor fit]"}, {"smiles": "Cc1cc(C)cc(NC(=O)CCNC(=O)N2C[C@H]3C[C@@H](C2)c2cccc(=O)n2C3)c1", "Potency": "inactive"}, {"smiles": "C[C@H]1C[C@@H](C)C(=O)[C@@H]([C@H](O)CC2CC(=O)NC(=O)C2)C1", "Potency": "active: 1.12 µM"}, {"smiles": "O=C1NC2C(O)C(O)C(O)C(O)C2c2cc3c(c(O)c21)OCO3", "note": "(configuration not stated)", "Potency": "inactive"}, {"smiles": "CCCC1(CCC)C(=O)NC(=NCc2ccccc2)NC1=O", "Potency": "inconclusive: 25.1 µM [inhibitor, partial curve, poor fit]"}, {"smiles": "COc1ccccc1OCCCn1cc(C=O)c2ccccc21", "activity change, negative = inhibition": "inactive: 8.72% [at 11.3 µM]"}, {"smiles": "NC(Cc1ccc(F)cc1)c1csc(Nc2ccccn2)n1", "note": "(configuration not stated)", "Potency": "inconclusive: 39.8 µM [inhibitor, single point]"}, {"smiles": "CC(=O)Nc1ccc(S(=O)(=O)N2Cc3ccccc3-n3nncc3C2)cc1", "Potency": "inactive"}, {"smiles": "COc1cccc(-n2c(/C=C/c3ccccn3)nc3ccccc3c2=O)c1", "Potency": "inactive"}, {"smiles": "COC(=O)C1=C(c2ccc(-c3ccccc3)c(F)c2)C[C@@H]2CC[C@H]1N2C(=O)N1CCCC1", "Potency": "inconclusive: 20 µM [inhibitor, partial curve, poor fit]"}, {"smiles": "COc1cc(/C=C(/C)[N+](=O)[O-])ccc1OCc1ccccc1Cl", "Potency": "active: 25.1 µM"}, {"smiles": "CC1OC(OC2CC(O)C3(CO)C4C(O)CC5(C)C(C6=CC(=O)OC6)CCC5(O)C4CCC3(O)C2)C(O)C(O)C1O", "note": "(configuration not stated)", "Potency": "active: 0.006 µM"}, {"smiles": "O=C(NC1CCCCC1)N1Cc2ccccc2-n2nncc2C1", "Potency": "inactive"}, {"smiles": "O=[N+]([O-])/C=C/c1c(Cl)cccc1Cl", "Potency": "inconclusive: 6.7 µM [inhibitor, full curve, poor fit]"}, {"smiles": "Cc1oc(-c2ccccc2Cl)nc1CN1C(=O)CN=C(c2ccccc2)c2cc(Cl)ccc21", "Potency": "inconclusive: 39.8 µM [inhibitor, single point]"}, {"smiles": "CCOc1cc2c(cc1OCC)-n1cccc1C(c1ccc(OC)c(OC)c1)NC2", "note": "(configuration not stated)", "Potency": "inconclusive: 28.2 µM [inhibitor, partial curve]"}, {"smiles": "CC12CC[C@H]3[C@@H](CCC4(O)C[C@H](O)CCC34/C=N/NC(=O)Cc3ccccc3)C1(O)CCC2C1=CC(=O)OC1", "note": "(some centres not stated)", "Potency": "inconclusive: 25.1 µM [inhibitor, single point]"}, {"smiles": "Cc1ccc(-n2c(O)c(/C=C/C=Nc3ccccc3)c(=O)[nH]c2=O)cc1", "Potency": "inactive"}, {"smiles": "Cc1cccc(C)c1-n1nnnc1C(c1cccs1)N1CCC(n2c(=O)[nH]c3ccccc32)CC1", "note": "(configuration not stated)", "Potency": "inconclusive: 35.5 µM [inhibitor, single point]"}, {"smiles": "S=C1Nc2ccccc2Sc2ccccc21", "Potency": "inactive"}, {"smiles": "COc1ccc(NC(=O)CCc2nc(C3=CCN(Cc4cccc(Cl)c4)CC3)no2)cc1OC", "Potency": "inconclusive: 39.8 µM [inhibitor, single point]"}, {"smiles": "O=c1[nH]c(O)c(N=Nc2cc([N+](=O)[O-])ccc2O)c(=O)[nH]1", "Potency": "inactive"}, {"smiles": "CCOC(=O)c1cnc(N2CC2)nc1N", "Potency": "active: 15.8 µM"}, {"smiles": "O=C(c1ccc(Cl)cc1)C1CCCN(Cc2ccc3ncccc3c2)C1", "note": "(configuration not stated)", "Potency": "inconclusive: 26.7 µM [inhibitor, partial curve, poor fit]"}, {"smiles": "Clc1ccc2c(c1)C(OC1CN3CCC1CC3)c1ccccc1CS2", "note": "(configuration not stated)", "Potency": "inconclusive: 39.8 µM [inhibitor, single point]"}, {"smiles": "COc1cccc2c1C(=O)c1c(O)c3c(c(O)c1C2=O)CC(O)(C(C)=NO)CC3OC1CC(N)C(O)C(C)O1", "note": "(configuration not stated)", "Potency": "active: 1.58 µM"}, {"smiles": "CC(C)c1ccc(N2C(=O)NC(=O)/C(=C\\C=C\\c3ccco3)C2=O)cc1", "Potency": "inconclusive: 25.1 µM [inhibitor, single point]"}, {"smiles": "Cc1ccccc1-n1c(Cn2cnc3c(N)ncnc32)nc2cccc(C)c2c1=O", "Potency": "inconclusive: 24.3 µM [inhibitor, partial curve]"}, {"smiles": "COCC1(CO)C(=O)C2CCN1CC2", "note": "(configuration not stated)", "Potency": "inconclusive: 1.72 µM [inhibitor, full curve]"}, {"smiles": "CN1CCN(C(=S)SCC(=O)Nc2ccc(Cl)cc2C(=O)c2ccccc2)CC1", "Potency": "inconclusive: 31.6 µM [inhibitor, single point]"}, {"smiles": "O=C(COc1ccc2ccccc2c1)N1CCN(Cc2c[nH]c3ccccc23)CC1", "Potency": "inconclusive: 35.5 µM [inhibitor, single point]"}, {"smiles": "C/C1=C\\[C@@H](C)C/C=C/[C@H]2[C@@H]3O[C@]3(C)[C@@H](C)[C@H]3[C@H](Cc4c[nH]c5ccccc45)NC(=O)[C@]32C(=O)/C=C/C(=O)[C@@H]1O", "Potency": "inconclusive: 31.6 µM [inhibitor, single point]"}]}]}
